According to PubChem BioAssay AID1963576 (National Center for Advancing Translational Sciences (NCATS), 2024):
Among all 46,000 compounds or so, about 60 (0.1%) were called active. Not shown: some 3% with an inconclusive outcome. The call rests on the fitted dose curve; in most records, active means well fitted inhibition curve with a large enough effect; inconclusive means small, poorly fitted or top-dose-only effect; inactive means no such curve, though single readings can be large or run the other way. This is one part of the list.

test: Primary qHTS assay for Inhibitors of ovarian cancer metastasis using an organotypic tumor microenvironment (TME) model.; further: nearly all actives have a fitted effect of over 65% in size;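 on activity change, negative = inhibition: plate controls were DMSO wells for no effect and tomatine positive control wells for full effect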; conditions: SKOV3ip1-GFP adhesion/invasion on 3D omental model, fluorescence; series mostly up to 45.8 µM; activity change, negative = inhibition: at the top concentration
Method in brief: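 A 3D layer of primary human omental fibroblasts, mesothelial cells, fibronectin and collagen I, grown 48 hr, received SKOV3ip1-GFP cells in serum-free medium plus compounds at 0.36-46 umol/L. After 2 hr RT and 16 hr 37 C, fixed adherent GFP cells were counted; normalized to DMSO and tomatine.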

Activity change, negative = inhibition, inactive:
CC1CCCCN1c1cc2c(cc1F)c(=O)c(S(=O)(=O)c1ccccc1)cn2Cc1ccccc1 (stereo unspecified) 7.1%, Cc1c(Cl)cccc1NC(=O)C(=O)NCCc1csc2nc(-c3ccccc3F)nn12 0.484%, CCCCOc1ccc(CNC(=O)c2cnc3sc(N4CCCC4)nn3c2=O)cc1 0.54%, CCn1ccc2c(OCC(=O)Nc3ccc(OC)cc3OC)cccc2c1=O 0.543%, COc1ccccc1CNC(=O)CCc1c(C)c2cc3c(C)coc3cc2oc1=O 2.82%, O=c1ccc(-c2ccccc2)nn1Cc1c(F)cccc1Cl -7.38%, COc1ccc(-c2nc(CNC(=O)Nc3ccccc3)c(C)o2)c(OC)c1 -8.24%, Cc1ccc(OCC(=O)NCC2(N3CCN(C)CC3)CCCCC2)cc1 3.09%, COc1ccccc1Nc1nc(C)nc(N)c1S(=O)(=O)c1ccccc1 2.18%, Cc1ccc(C)c(NC(=O)c2cc(S(=O)(=O)NCc3ccccc3)ccc2F)c1 -3.68%, Cc1nc2c3cccnc3nn2c(C)c1CCC(=O)NCc1ccccc1 -2.96%, Cc1ccc(O)c(NC(=O)c2cc(-c3ccc(F)cc3)no2)c1 4.22%, COc1ccc(CNC(=O)c2ccc(Cn3c(=O)c4cccn4c4cccnc43)cc2)c(OC)c1 -6.75%, COc1ccc(-n2nc3c(N4CCC(C(=O)N5CCC(C)CC5)CC4)nnc(C)c3c2C)cc1 -17.9%, CCOCc1cc(CN2CCN(c3cccc(C(F)(F)F)c3)CC2)c(O)c2ncccc12 -13.1%, COc1c(OCCCN2CCOCC2)ccc2c3n(c(=NC(=O)c4cnc(N)nc4)nc12)CCN3 -4.01% [at 23.2 µM], COc1cccc(-n2c(SCc3cccc(C)c3)nc3c([nH]c4ccccc43)c2=O)c1 -10%, O=C(C1CCC1)N1CCCc2cc(S(=O)(=O)N3CCN(c4cccc(Cl)c4)CC3)ccc21 3.03%, CCOc1ccc(-n2ccnc2SCC(=O)Nc2cc(C)ccc2C)cc1 -1.32%, CCOc1ccccc1NC(=O)COC(=O)CC(C)(C)CC1=NS(=O)(=O)c2ccccc2N1 -2.47%, Cc1onc(-c2ccccc2Cl)c1C(=O)Oc1ccc(Cl)cc1Cl 25.1%, Cc1ccc(C)c(NC(=O)C(=O)NCCCN2CCOCC2)c1 1.48%, CCOc1ccc(CCNC(=O)c2cnc3c(-c4ccc(F)cc4)c(C)nn3c2C)cc1 -22.2%, COc1ccc(C(=O)c2cn(Cc3ccccc3)c3ccccc3c2=O)cc1OC -3.11%, CN1C(C(=O)Nc2cccc(O)c2)=CC(c2cccs2)=NS1(=O)=O -12.9%, Nc1ncc(S(=O)(=O)NCc2ccccc2)cn1 -11.2%, COc1cc(S(=O)(=O)NCCc2c(C)[nH]c3ccc(C)cc23)ccc1Br 7.89%, COc1ccc(N(C(=O)c2ccccc2C)S(=O)(=O)c2ccc(Cl)cc2)cc1 -9.1%, CCOc1ccc(CCNC(=O)Cn2c(-c3cccs3)cc3ccccc32)cc1 3.03%, CCOc1ccc(NC(=O)CN(Cc2ccccc2)S(=O)(=O)c2ccc3nc(C)sc3c2)cc1 -19.1%, CN1C(=O)c2cccc3c(S(=O)(=O)Nc4cccc(C(=O)O)c4)ccc1c23 2.11%, CN1CCc2nc3sc(C(=O)c4ccc(F)cc4)c(N)c3cc2C1 -8.87%, CCOc1ccccc1CNCc1c(C(=O)O)c(C)n(Cc2ccc(C)cc2)c1C 7.06%, CCC(C)S(=O)(=O)c1oc(-c2cccs2)nc1S(=O)(=O)c1ccccc1 (stereo unspecified) -19.5%, COc1cn(CC(=O)Nc2cc(C)cc(C)c2)c(CN2CCCCC2)cc1=O -3.45%, CCOc1ccc(N2CC(NC(=O)c3ccc(Cl)cc3)CC2=O)cc1 (stereo unspecified) -2.94%, Cc1cccc(NC(=O)c2oc3ccccc3c2NC(=O)c2cc(=O)c3ccccc3o2)c1 0.634%, CCN(CC)S(=O)(=O)c1ccc(OC)c(NC(=O)c2sc3ccccc3c2Cl)c1 -1.04%, CN(c1ccc(F)cc1)S(=O)(=O)N1CCCC(C(=O)NCc2ccccc2Cl)C1 (stereo unspecified) -2.38%, Nc1ccc(C(=O)c2cc3c(ccc4ccccc43)[nH]2)cc1 -10.1%, CCOC(=O)N1CCc2c(sc3c2c(=O)n(Cc2ccccc2)c(=O)n3CC(=O)Nc2ccc(F)cc2)C1 -6.54%, O=S1(=O)c2ccccc2N(Cc2ccccc2F)c2ccccc21 2.93%, Cc1ccccc1Cn1c(CN2CCC(C(=O)NCc3ccc(Cl)cc3)CC2)cc2ccccc21 8.72%, CCN1CCc2c(sc(NC(=O)c3ccc(S(=O)(=O)N4CCCC(C)C4)cc3)c2C(=O)OC)C1 (stereo unspecified) -3.7%, COc1ccc(C(=O)Nc2ccc3oc(-c4cccc5c(Br)cccc45)nc3c2)cc1 -0.237%, CCOc1ccc(NS(=O)(=O)c2ccc3c(c2)NC(=O)CCS3)cc1 2.19%, O=C(NCc1ccc2c(c1)OCO2)c1ccc2c(c1)N(Cc1c(F)cccc1Cl)C(=O)c1ccccc1S2 2.64%, COc1ccc(CCNC(=O)c2ccc(-n3c(C)cc4c3CCC(C)C4)cc2)cc1OC (stereo unspecified) 1.51%, Cc1ccc(-c2csc(-c3c(N)c(C(=O)c4ccc5c(c4)OCO5)n4ccccc34)n2)cc1 -4.78%, COc1ccc(-n2c(-c3cccc(F)c3)nc3c(cnn3-c3ccc(C)cc3)c2=O)cc1 -2.83%, Cc1ccc(-c2cn3nc(N4CCCC(C(=O)NCc5ccccc5F)C4)sc3n2)cc1 (stereo unspecified) -9.87%, COc1ccc(C(=O)c2cn(CC(=O)Nc3cc(OC)cc(OC)c3)c3ccc(OC)cc3c2=O)cc1 -6.5%, COc1cccc(N2C(=O)C(CC(=O)Nc3cccc(F)c3)N(C3CCCC3)C2=O)c1 (stereo unspecified) 0.716%, Cc1cccc(N(C)C(=O)Cn2c(=O)oc3cc(S(=O)(=O)N4CCCCC4)ccc32)c1 2.87%, CCOC(=O)c1c(S(=O)(=O)N2CCC(C(=O)NCc3cccc(OC)c3)CC2)c(C)n(C)c1C 4.19%, CCN(c1ccc(OC)cc1)S(=O)(=O)c1ccc2[nH]c3c(c2c1)CCCCC3 -0.291%, Clc1ccc(C(Cn2ccnc2)OCc2c(Cl)cccc2Cl)c(Cl)c1 (stereo unspecified) -3.95%, COc1ccc(C2CC(=O)c3cc(-c4nc(-c5cccc([N+](=O)[O-])c5)cs4)c(=O)n(-c4ccccc4N)c3C2)cc1 (stereo unspecified) 2.47%, Cc1ccc(CNC(=O)c2ccc3c(c2)CCN3S(=O)(=O)c2ccc(Br)cc2)cc1 9.6%, NC(=O)c1cc(S(=O)(=O)NCc2cccc(Br)c2)cs1 -9.02%, Cc1nc2ccn(Cc3ccco3)c(=O)c2cc1C(=O)NCc1ccc(Cl)cc1 -6.92%, COC(=O)c1ccc(NC(=O)Cn2c(=O)oc3ccccc32)cc1 -6.81%, CCCOc1ccc(C2c3c(oc4ccccc4c3=O)C(=O)N2c2nnc(C(C)C)s2)cc1 (stereo unspecified) 6.51%, COc1ccccc1CNC(=O)c1ccc(N2CCCC2)c(NC(=O)NCc2ccc(C)cc2)c1 -17.2%, COc1ccc(CC(=O)N2CC(=O)Nc3ccc(F)cc3C2c2ccccc2)cc1 (stereo unspecified) 8.88%, CCOC(=O)CNC(=O)N1CCN(S(=O)(=O)c2ccc3c(ccn3C)c2)CC1 -6.84%, COC(=O)c1ccccc1NC(=O)c1ccc(CN2CC(=O)N3CCCCC3C2=O)cc1 (stereo unspecified) -3.53%, COc1ccc(C2=NC(c3ccccc3)=Nc3ccc(C)cc3N2)cc1 -5.73%, CCC(C)NC(=O)c1c2c(nc3ccccc13)C(=O)N(C1CCCCC1)C2 (stereo unspecified) -1.32%

outcome, inactive:
CCC(=O)N1c2ccccc2CC1C(=O)NCCCN1CCN(c2ccc(OC)cc2)CC1 (stereo unspecified), CCn1cc(C(=O)NCCC(C)C)c(=O)c2cc(S(=O)(=O)N(C)C3CCCCC3)ccc21, COc1ccc(Nc2ncc(C(=O)Nc3cccc(Cl)c3)c3ccccc23)cc1, CCN(CC)S(=O)(=O)c1ccc2c(c1)nc(CN(C)C(=O)Nc1ccc(C)c(Cl)c1)n2C, CC(C)CCNC(=O)c1cnc2sc(N3CCCCCC3)nn2c1=O, O=C(NCCCN1CCN(c2ccccc2)CC1)c1sc2ncccc2c1-n1cccc1, O=C(NCCc1nc2ccccc2n1Cc1ccccc1F)c1ccc(F)cc1, Cc1c(Cl)cccc1NC(=O)CCS(=O)(=O)c1ccc2c(c1)CC(C)N2C(=O)C1CC1 (stereo unspecified), Cc1cccc(N2CCN(C(=O)C3CCN(C(=O)c4cc5sccc5n4C)CC3)CC2C)c1 (stereo unspecified), CCOc1ccc2nc(Cl)c(C3CC(c4ccc(C)cc4)=NN3C(=O)CCC(=O)O)cc2c1 (stereo unspecified), COc1ccc(CN(C)c2ccc(-c3nc(-c4ccc(OC)c(OC)c4)no3)cc2[N+](=O)[O-])cc1, COc1cccc(-c2nnc(SCC(=O)N(C)C3CCCCC3)o2)c1, Cc1ccc2c(c1)c1c(c(=O)n(Cc3ccccc3)c(=O)n1Cc1ccccc1F)n2C, CNC(=O)CN1C(=O)COc2ccc(S(=O)(=O)N3CCCCCC3)cc21, CCCCN(C)C(=O)c1ccc2c(=O)n3nc(Nc4cc(C)ccc4C)sc3nc2c1, Cc1c(Cl)cccc1NC(=O)C(=O)NCCc1csc(-c2ccc(C(F)(F)F)cc2)n1, O=C(CNC(=O)c1ccc(F)cc1)OCc1cc(=O)n2ccsc2n1, Cc1cc(C)c(OCC(=O)N(Cc2ccc(N(C)C)cc2)Cc2ccco2)c(C)c1, Cc1cc(C)cc(NC(=O)COc2cccc3c(=O)n(C)ccc23)c1, Cc1ccc(Cn2nc3n(c2=O)-c2cc(Cl)ccc2OC3)cc1, COC(=O)c1ccccc1NC(=O)Cn1c(=O)n(CCC(=O)NCc2ccc3c(c2)OCO3)c(=O)c2ccccc21, Cn1ccnc1SCC(=O)Nc1cccc(Br)c1, COc1ccc(-c2nc3ccccc3o2)cc1NC(=O)Cc1ccc(Cl)cc1, CCn1c(SCC(=O)Nc2cc(C)ccc2F)nnc1-c1ccccc1O, COc1ccc(N2CC(NC(=O)C3CCCCC3)CC2=O)cc1 (stereo unspecified), Cc1ccccc1CNC(=O)Cn1c(=O)c2cccn2c2cccnc21, CCOC(=O)c1cc(S(=O)(=O)Nc2ccccc2)[nH]n1
